Measured values: the supplement of paper PMC10037445
The full ranking holds about 2,900 compounds; the median of “NF-kB SEAP reporter activity, fold change vs agonist alone” is about 0.99, and the highest 2% start at about 2.6. The list shows a part of the results.

Columns and labels:
RAW-Dual [1] = experiment: NF-kB SEAP reporter activity, fold change vs agonist alone; higher = enhanced NF-kB activity
How it was run: (§1)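 RAW-Dual macrophages (50,000 cells/well in DMEM, 384-well plates) received 50 nL of library stock by pin tool, then a PRR agonist 1 h later, and were kept at 37 °C, 5% CO2. After 20 hours, supernatant was read for IRF by QuantiLuc luminescence and for NF-κB by QuantiBlue absorbance at 620 nm. Reporter activity is fold change over agonist-alone wells. Cytotoxic wells had IncuCyte confluency below 70% of agonist controls in both mask sets.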

RAW-Dual [2] = experiment: NF-kB SEAP reporter activity, fold change vs agonist alone; cytotoxicity flag (confluency mask): not cytotoxic; higher = enhanced NF-kB activity
How it was run: as §1

RAW-Dual [3] = experiment: NF-kB SEAP reporter activity, fold change vs agonist alone; cytotoxicity flag (confluency mask): cytotoxic (confluency <70% of control); higher = enhanced NF-kB activity
How it was run: as §1

[4] = library stock concentration (final ~1000-fold dilution): 10 mM, cytotoxicity flag (confluency mask): not cytotoxic, agonist: Imiquimod (TLR7) […]
[5] = library stock concentration (final ~1000-fold dilution): 10 mM, cytotoxicity flag (confluency mask): not cytotoxic, agonist: MPLA (TLR4) […]
[6] = agonist: ODN 1826 (TLR9) 0.5 ug/mL
[7] = agonist: Pam2CSK4 (TLR2/6) 0.1 ug/mL
[8] = agonist: Pam3CSK4 (TLR2/1) 0.1 ug/mL
[9] = library stock concentration (final ~1000-fold dilution): 10 mM, cytotoxicity flag (confluency mask): cytotoxic (confluency <70% of control), agonist: Imiquimod (TLR7) […]
[10] = library stock concentration (final ~1000-fold dilution): 10 mM, cytotoxicity flag (confluency mask): cytotoxic (confluency <70% of control), agonist: MPLA (TLR4) […]

O=C1c2c(O)cc(O)cc2OC(c2ccc(O)c(O)c2)C1O (stereo unspecified)
NF-kB SEAP reporter activity (RAW-Dual [1]; [4]): 0.89 | NF-kB SEAP reporter activity (RAW-Dual [1]; [5]): 0.902

O=C1c2c(O)cc(O)cc2OC(c2ccc(O)c(O)c2)C1O (stereo unspecified) (library stock concentration (final ~1000-fold dilution): 10 mM)
NF-kB SEAP reporter activity (RAW-Dual [2]; agonist: LPS (TLR4) 0.1 ug/mL): 1.11 | NF-kB SEAP reporter activity (RAW-Dual [2]; [6]): 0.966 | NF-kB SEAP reporter activity (RAW-Dual [2]; [7]): 0.869 | NF-kB SEAP reporter activity (RAW-Dual [2]; [8]): 0.93

FC(F)(F)c1ccc(/C=C/c2nc(COc3ccc(CCCCn4ccnn4)cc3)co2)cc1 (library stock concentration (final ~1000-fold dilution): 10 mM)
NF-kB SEAP reporter activity (RAW-Dual [2]; agonist: LPS (TLR4) 0.1 ug/mL): 1.29 | NF-kB SEAP reporter activity (RAW-Dual [2]; [6]): 1.04 | NF-kB SEAP reporter activity (RAW-Dual [2]; [7]): 0.706 | NF-kB SEAP reporter activity (RAW-Dual [2]; [8]): 0.878

FC(F)(F)c1ccc(/C=C/c2nc(COc3ccc(CCCCn4ccnn4)cc3)co2)cc1
NF-kB SEAP reporter activity (RAW-Dual [1]; [4]): 0.971 | NF-kB SEAP reporter activity (RAW-Dual [1]; [5]): 1.33

COc1cc2c(cc1OC)C1C(=O)c3ccc4c(c3OC1CO2)C=CC(C)(C)O4 (stereo unspecified) (library stock concentration (final ~1000-fold dilution): 10 mM)
NF-kB SEAP reporter activity (RAW-Dual [2]; agonist: LPS (TLR4) 0.1 ug/mL): 1.9 | NF-kB SEAP reporter activity (RAW-Dual [2]; [6]): 0.824 | NF-kB SEAP reporter activity (RAW-Dual [2]; [7]): 0.347 | NF-kB SEAP reporter activity (RAW-Dual [2]; [8]): 0.584

COc1cc2c(cc1OC)C1C(=O)c3ccc4c(c3OC1CO2)C=CC(C)(C)O4 (stereo unspecified)
NF-kB SEAP reporter activity (RAW-Dual [1]; [4]): 0.738 | NF-kB SEAP reporter activity (RAW-Dual [1]; [5]): 1.28

C#CCN(C)CCCOc1ccc(Cl)cc1Cl.Cl
NF-kB SEAP reporter activity (RAW-Dual [1]; [4]): 1.28 | NF-kB SEAP reporter activity (RAW-Dual [1]; [5]): 1.14

C#CCN(C)CCCOc1ccc(Cl)cc1Cl.Cl (library stock concentration (final ~1000-fold dilution): 10 mM)
NF-kB SEAP reporter activity (RAW-Dual [2]; agonist: LPS (TLR4) 0.1 ug/mL): 0.954 | NF-kB SEAP reporter activity (RAW-Dual [2]; [6]): 0.939 | NF-kB SEAP reporter activity (RAW-Dual [2]; [7]): 0.906 | NF-kB SEAP reporter activity (RAW-Dual [2]; [8]): 0.907

CC(Oc1cc(-c2cnn(C3CCNCC3)c2)cnc1N)c1c(Cl)ccc(F)c1Cl (stereo unspecified)
NF-kB SEAP reporter activity (RAW-Dual [1]; [9]): 0.634 | NF-kB SEAP reporter activity (RAW-Dual [1]; [10]): 1.05 | NF-kB SEAP reporter activity (RAW-Dual [1]; [4]): 0.548 | NF-kB SEAP reporter activity (RAW-Dual [1]; [5]): 0.515

CC(Oc1cc(-c2cnn(C3CCNCC3)c2)cnc1N)c1c(Cl)ccc(F)c1Cl (stereo unspecified) (library stock concentration (final ~1000-fold dilution): 10 mM)
NF-kB SEAP reporter activity (RAW-Dual [2]; agonist: LPS (TLR4) 0.1 ug/mL): 0.223 | NF-kB SEAP reporter activity (RAW-Dual [2]; [6]): 0.217 | NF-kB SEAP reporter activity (RAW-Dual [2]; [7]): 0.144 | NF-kB SEAP reporter activity (RAW-Dual [2]; [8]): 0.287 | NF-kB SEAP reporter activity (RAW-Dual [3]; agonist: LPS (TLR4) 0.1 ug/mL): 0.721 | NF-kB SEAP reporter activity (RAW-Dual [3]; [6]): 0.25 | NF-kB SEAP reporter activity (RAW-Dual [3]; [7]): 0.376 | NF-kB SEAP reporter activity (RAW-Dual [3]; [8]): 0.238

O=C(CCCCCCC(=O)N/N=C/c1ccc(N(c2ccccc2)c2ccccc2)cc1)NO (library stock concentration (final ~1000-fold dilution): 10 mM)
NF-kB SEAP reporter activity (RAW-Dual [3]; agonist: LPS (TLR4) 0.1 ug/mL): 5.47 | NF-kB SEAP reporter activity (RAW-Dual [3]; [6]): 2.71 | NF-kB SEAP reporter activity (RAW-Dual [3]; [7]): 1.09 | NF-kB SEAP reporter activity (RAW-Dual [3]; [8]): 1.61

O=C(CCCCCCC(=O)N/N=C/c1ccc(N(c2ccccc2)c2ccccc2)cc1)NO
NF-kB SEAP reporter activity (RAW-Dual [1]; [9]): 1.77 | NF-kB SEAP reporter activity (RAW-Dual [1]; [10]): 2.3

O.O=C(O)c1ncccc1[O-].O=C([O-])c1ncccc1[O-].[H+].[O]=[V][OH] (library stock concentration (final ~1000-fold dilution): 10 mM)
NF-kB SEAP reporter activity (RAW-Dual [2]; agonist: LPS (TLR4) 0.1 ug/mL): 1.32 | NF-kB SEAP reporter activity (RAW-Dual [2]; [6]): 2.4 | NF-kB SEAP reporter activity (RAW-Dual [2]; [7]): 1.24 | NF-kB SEAP reporter activity (RAW-Dual [2]; [8]): 1.31

O.O=C(O)c1ncccc1[O-].O=C([O-])c1ncccc1[O-].[H+].[O]=[V][OH]
NF-kB SEAP reporter activity (RAW-Dual [1]; [4]): 1.41 | NF-kB SEAP reporter activity (RAW-Dual [1]; [5]): 1.15

CC(OCC1(c2ccccc2)CCC2(CCC(=O)N2)CN1)c1cc(C(F)(F)F)cc(C(F)(F)F)c1 (stereo unspecified)
NF-kB SEAP reporter activity (RAW-Dual [1]; [10]): 0.603

CC(OCC1(c2ccccc2)CCC2(CCC(=O)N2)CN1)c1cc(C(F)(F)F)cc(C(F)(F)F)c1 (stereo unspecified) (library stock concentration (final ~1000-fold dilution): 10 mM)
NF-kB SEAP reporter activity (RAW-Dual [3]; agonist: LPS (TLR4) 0.1 ug/mL): 0.429 | NF-kB SEAP reporter activity (RAW-Dual [3]; [6]): 0.421 | NF-kB SEAP reporter activity (RAW-Dual [3]; [7]): 0.283 | NF-kB SEAP reporter activity (RAW-Dual [3]; [8]): 0.261

C=C1C(=O)O[C@H]2[C@H]1CC/C(C)=C\CC[C@@]1(C)O[C@@H]21 (library stock concentration (final ~1000-fold dilution): 10 mM)
NF-kB SEAP reporter activity (RAW-Dual [2]; agonist: LPS (TLR4) 0.1 ug/mL): 0.692 | NF-kB SEAP reporter activity (RAW-Dual [2]; [6]): 0.285 | NF-kB SEAP reporter activity (RAW-Dual [2]; [7]): 0.243 | NF-kB SEAP reporter activity (RAW-Dual [2]; [8]): 0.229

C=C1C(=O)O[C@H]2[C@H]1CC/C(C)=C\CC[C@@]1(C)O[C@@H]21
NF-kB SEAP reporter activity (RAW-Dual [1]; [4]): 1.01 | NF-kB SEAP reporter activity (RAW-Dual [1]; [5]): 0.372

CCc1nc(C(N)=O)c(Nc2ccc(N3CCC(N4CCN(C)CC4)CC3)c(OC)c2)nc1NC1CCOCC1 (library stock concentration (final ~1000-fold dilution): 10 mM)
NF-kB SEAP reporter activity (RAW-Dual [2]; agonist: LPS (TLR4) 0.1 ug/mL): 0.855 | NF-kB SEAP reporter activity (RAW-Dual [2]; [6]): 0.273 | NF-kB SEAP reporter activity (RAW-Dual [2]; [7]): 0.384 | NF-kB SEAP reporter activity (RAW-Dual [2]; [8]): 0.834

CCc1nc(C(N)=O)c(Nc2ccc(N3CCC(N4CCN(C)CC4)CC3)c(OC)c2)nc1NC1CCOCC1
NF-kB SEAP reporter activity (RAW-Dual [1]; [4]): 0.887 | NF-kB SEAP reporter activity (RAW-Dual [1]; [5]): 1.24

N=C(N)NCCN1CCCCCCC1.O=S(=O)(O)O (library stock concentration (final ~1000-fold dilution): 10 mM water)
NF-kB SEAP reporter activity (RAW-Dual [2]; agonist: LPS (TLR4) 0.1 ug/mL): 1.13 | NF-kB SEAP reporter activity (RAW-Dual [2]; [6]): 1.05 | NF-kB SEAP reporter activity (RAW-Dual [2]; [7]): 1.06 | NF-kB SEAP reporter activity (RAW-Dual [2]; [8]): 0.972

N=C(N)NCCN1CCCCCCC1.O=S(=O)(O)O
NF-kB SEAP reporter activity (RAW-Dual [1]; library stock concentration (final ~1000-fold dilution): 10 mM water, cytotoxicity flag (confluency mask): not cytotoxic, agonist: MPLA (TLR4) […]): 1.05

COc1ccc(CC(=O)Nc2nc3c(s2)CCc2ccccc2-3)cc1OC
NF-kB SEAP reporter activity (RAW-Dual [1]; [4]): 0.987 | NF-kB SEAP reporter activity (RAW-Dual [1]; [5]): 1.12

COc1ccc(CC(=O)Nc2nc3c(s2)CCc2ccccc2-3)cc1OC (library stock concentration (final ~1000-fold dilution): 10 mM)
NF-kB SEAP reporter activity (RAW-Dual [2]; agonist: LPS (TLR4) 0.1 ug/mL): 1.22 | NF-kB SEAP reporter activity (RAW-Dual [2]; [6]): 1.02 | NF-kB SEAP reporter activity (RAW-Dual [2]; [7]): 0.644 | NF-kB SEAP reporter activity (RAW-Dual [2]; [8]): 1.05
